Data published in the supplement of paper PMC4967469.
pIC50: −log10 of the molar value. Lines with a small IC50 respond at low doses; a fit beyond the top or the lowest dose is shown as a bound at that dose. AUC sums up the same curve from the lowest dose to the 256-fold higher top dose: 1 means no effect, lower means more sensitive. For some of these results: The top dose, if marked as inferred, comes from the curve model; the source does not state it. For some of these results: An entry number marks a drug with two screens in the source, which often give different values.

Experiments:
Experiment in all cases: Viability of human cancer cell lines after 72 h of drug (GDSC screen)
[1] = compound: Cc1ccc(NC(=O)c2cccc(C(C)(C)C#N)c2)cc1Nc1ccc2ncn(C)c(=O)c2c1 [AZ628]; settings: top dose 4 µM; top dose inferred
Method: (§1)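 Human cancer cell lines in 384-well plates, medium with 10% serum, drug for 72 h over a 256-fold dose range (nine 2-fold or five 4-fold steps up to the top dose). Adherent lines were fixed and stained with the nucleic acid dye Syto60, suspension lines read with resazurin; signal relative to control wells, capped at 0 and 100%. One two-parameter sigmoid per drug and line, fitted in a mixed model over all curves with the slope shared within a line.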

[2] = compound: Cn1cnc2c(F)c(Nc3ccc(Br)cc3Cl)c(C(=O)NOCCO)cc21 [AZD6244]; settings: top dose 4 µM; screen: GDSC drug entry 1498; top dose inferred
Method: as §1

[3] = compound: N#CC(c1ccnc(NCCc2cccnc2)n1)c1nc2ccccc2s1 [AS601245]; settings: top dose 8 µM; top dose inferred
Method: as §1

[4] = compound: NC(=O)C1CCCc2c1[nH]c1ccc(Cl)cc21 [EX-527]; settings: top dose 20 µM
Method: as §1

[5] = compound: Nc1ccc(C(=O)Nc2cccc(-c3nc(N4CCOCC4)c4oc5ncccc5c4n3)c2)cn1 [YM201636]; settings: top dose 5.12 µM; top dose inferred
Method: as §1

| Cell Line | AUC [1] | pIC50 [1] | AUC [2] | pIC50 [2] | AUC [3] | pIC50 [3] | AUC [4] | pIC50 [4] | AUC [5] | pIC50 [5] |
| --- | --- | --- | --- | --- | --- | --- | --- | --- | --- | --- |
| RF-48 (stomach, adherent) | 0.931 | < 5.40 | 0.98 | < 5.40 | 0.874 | < 5.10 | 0.979 | < 4.70 | 0.761 | 5.69 |
| RH-1 (rhabdomyosarcoma, adherent) | 0.987 | < 5.40 | 0.984 | < 5.40 | 0.868 | 5.27 | 0.99 | < 4.70 | 0.644 | 6.13 |
| RKO (large intestine, adherent) | 0.275 | 7.22 | 0.865 | 5.51 | 0.727 | 5.68 | 0.975 | < 4.70 | 0.894 | < 5.29 |
| RL (B-cell lymphoma, suspension) | 0.9 | < 5.40 | 0.978 | < 5.40 | 0.963 | < 5.10 | 0.984 | < 4.70 | 0.754 | 5.80 |
| ROS-50 (B-cell leukaemia, suspension) | 0.845 | < 5.40 | 0.979 | < 5.40 | 0.96 | < 5.10 | 0.952 | < 4.70 | 0.837 | 5.31 |
| RPMI-6666 (Hodgkin lymphoma, suspension) | 0.809 | 5.58 | 0.929 | < 5.40 | 0.744 | 5.53 | 0.966 | < 4.70 | 0.82 | 5.43 |
| RPMI-8226 (myeloma, suspension) | 0.809 | 5.75 | 0.926 | < 5.40 | 0.957 | < 5.10 | 0.991 | < 4.70 | 0.93 | < 5.29 |
| RPMI-8402 (T-cell lymphoblastic leukaemia, suspension) | 0.963 | < 5.40 | 0.978 | < 5.40 | 0.868 | 5.27 | 0.973 | < 4.70 | 0.716 | 5.94 |
| RS4-11 (leukaemia, suspension) | 0.94 | < 5.40 | 0.97 | < 5.40 | 0.808 | 5.43 | 0.985 | < 4.70 | 0.685 | 6.00 |
| RXF393 (kidney, adherent) | 0.942 | < 5.40 | 0.829 | 5.40 | 0.807 | 5.21 | 0.974 | < 4.70 | 0.858 | < 5.29 |
| Raji (Burkitt lymphoma, suspension) | 0.961 | < 5.40 | 0.969 | < 5.40 | 0.979 | < 5.10 | 0.986 | < 4.70 | 0.932 | < 5.29 |
| Ramos-2G6-4C10 (Burkitt lymphoma, suspension) | 0.935 | < 5.40 | 0.97 | < 5.40 | 0.852 | 5.31 | 0.99 | < 4.70 | 0.91 | < 5.29 |
| SBC-1 (small cell lung carcinoma, suspension) | 0.967 | < 5.40 | 0.975 | < 5.40 | 0.965 | < 5.10 | 0.987 | < 4.70 | 0.882 | 5.29 |
| SCC-15 (head and neck, adherent) | 0.873 | < 5.40 | 0.788 | 5.61 | 0.895 | < 5.10 | 0.978 | < 4.70 | 0.943 | < 5.29 |
| SCH (stomach, adherent) | 0.988 | < 5.40 | 0.978 | < 5.40 | 0.988 | < 5.10 | 0.988 | < 4.70 | 0.988 | < 5.29 |
| SF126 (glioma, adherent) | 0.94 | < 5.40 | 0.93 | < 5.40 | 0.915 | < 5.10 | 0.985 | < 4.70 | 0.935 | < 5.29 |
| SF268 (glioma, adherent) | 0.924 | < 5.40 | 0.956 | < 5.40 | 0.849 | 5.17 | 0.985 | < 4.70 | 0.914 | < 5.29 |
| SF539 (glioma, adherent) | 0.933 | < 5.40 | 0.915 | < 5.40 | 0.877 | 5.18 | 0.957 | < 4.70 | 0.954 | < 5.29 |
| SH-4 (melanoma, adherent) | 0.193 | 7.76 | 0.554 | 6.42 | 0.848 | < 5.10 | 0.96 | < 4.70 | 0.812 | 5.31 |
| SHP-77 (small cell lung carcinoma, semi-adherent) | 0.971 | < 5.40 | 0.978 | < 5.40 | 0.962 | < 5.10 | 0.987 | < 4.70 | 0.922 | < 5.29 |
| SIMA (neuroblastoma, adherent) | 0.824 | 5.55 | 0.906 | < 5.40 | 0.919 | < 5.10 | 0.977 | < 4.70 | 0.838 | 5.38 |
| SJSA-1 (bone, adherent) | 0.689 | 6.04 | 0.809 | 5.62 | 0.881 | < 5.10 | 0.983 | < 4.70 | 0.97 | < 5.29 |
| SK-ES-1 (Ewing sarcoma, semi-adherent) | 0.955 | < 5.40 | 0.978 | < 5.40 | 0.884 | < 5.10 | 0.984 | < 4.70 | 0.764 | 5.71 |
| SK-LMS-1 (soft tissue, adherent) | 0.987 | < 5.40 | 0.696 | 6.07 | 0.853 | 5.24 | 0.987 | < 4.70 | 0.889 | < 5.29 |
| SK-MEL-1 (melanoma, suspension) | 0.595 | 6.36 | 0.671 | 6.16 | 0.96 | < 5.10 | 0.986 | < 4.70 | 0.954 | < 5.29 |
